PubChem BioAssay AID1347417 (National Center for Advancing Translational Sciences (NCATS), 2020)
In all, about 120,000 compounds went through this assay and about 5,300 (4.4%) were called active. The inconclusive results got no clear call from the source; some entries with a clear call stand among them for comparison. Calls come from the whole dose curve; as a rule, active = well fitted inhibition curve with a large enough effect; inconclusive = small, poorly fitted or top-dose-only effect; inactive = no such curve, though single readings can be large or run the other way. Potencies of inconclusive entries are doubtful fits and often do not repeat.

Assay: qHTS Primary assay for Inhibitors of Plasmodium falciparum Dd2 growth in vitro; note: nearly all actives have a fitted effect of over 65% in size
Details: P. falciparum Dd2 growth, SYBR Green, 72 h; series mostly up to 28.9 µM
Summary of the method: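 Infected erythrocytes (Dd2, 0.3% parasitemia, 2.5% hematocrit final) are added to compound in RPMI-1640/Albumax II medium, grown 72 h at 37C in low oxygen, then lysed with saponin/Triton-X containing SYBR Green and read by fluorescence.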
Potency is the fitted concentration of half-maximal effect; tags give direction and shape of the fitted curve.

Compound | Potency
CCc1ccccc1NC(=O)c1ccc2c(c1)N(Cc1cccc(Cl)c1)C(=O)c1ccccc1S2(=O)=O | inconclusive: 12.6 µM [inhibitor, single point]
CC(=O)Nc1ccc(S(=O)(=O)N2C[C@@H]3C[C@H](C2)c2ccc(-c4ccccc4C)c(=O)n2C3)cc1 | inactive
Cc1cccc(CCNC(=O)c2sc3nc4n(c(=O)c3c2C)CCCC4)c1 | inconclusive: 7.94 µM [inhibitor, partial curve, poor fit]
COCCN1C(=O)CS(=O)(=O)C12CCN(C(=O)c1ccccc1C)CC2 | inactive
CC1=C[C@@H](CNS(=O)(=O)c2ccc(C#N)cc2)[C@H](C(C)C)C[C@H]1Cc1nnc(-c2ccncc2)o1 | inconclusive: 3.98 µM [inhibitor, partial curve, poor fit]
Cc1cnc(-c2ccccc2)n1C1CCN(C(=O)Nc2ccccc2F)CC1 | inconclusive: 17.8 µM [inhibitor, single point]
O=C(COc1ccc(F)cc1)N1CCC2(CC1)N=C(c1ccccc1)NC2=O | inconclusive: 6.31 µM [inhibitor, partial curve]
CCOc1ccc(-c2nnc(Nc3ccc(S(N)(=O)=O)cc3)c3ccccc23)cc1 | inactive
CCOc1ccc2c(n1)CCN(C(=O)Cc1ccccc1C)C2 | inconclusive: 3.16 µM [inhibitor, partial curve, poor fit]
COc1cccc(NC(=O)Nc2cccc(-c3cn4cccnc4n3)c2)c1 | inactive
Cc1ccccc1C(=O)N1C(C(=O)NCc2ccco2)COC12CCN(C(=O)c1ccco1)CC2 (centres undefined) | inactive
Cc1cccc(NC(=O)c2c(C)oc3ncn(CC(C)C)c(=O)c23)n1 | inconclusive: 17.8 µM [inhibitor, single point]
Cc1nc2c(C(=O)NCc3ccccc3)c[nH]n2c(=O)c1Cc1ccccc1Cl | inconclusive: 7.08 µM [inhibitor, partial curve, poor fit]
Cc1ccc(-c2c(CN3CCN(c4cccc(C(F)(F)F)c4)CC3)csc2C)cc1 | inconclusive: 10 µM [inhibitor, single point]
Cc1ccc(-c2ncc(C(=O)Nc3cccc(Br)c3)c(-c3ccncc3)n2)cc1 | inconclusive: 12.6 µM [inhibitor, single point]
COc1cccc(C2C=C(c3ccc(C)c(C)c3)Nc3nnnn32)c1OC (centres undefined) | inconclusive: 15.8 µM [inhibitor, single point]
CC(C)CN1C(=O)c2ccccc2C(C(=O)Nc2nncs2)C12CCCC2 (centres undefined) | active: 12.6 µM
CCCCCNC(=O)CC(c1cccc(OC)c1OC)c1c[nH]c2c(CC)cccc12 (centres undefined) | inactive
O=c1c2nc(-c3ccccc3)ccc2ncn1-c1ccccc1 | inconclusive: 7.94 µM [inhibitor, partial curve]
O=C(Cc1ccc(F)cc1)N1CCC[C@H]1c1nc(-c2ccc(F)cc2)no1 | inactive
COc1cc(NC(=O)Nc2cccc(-c3ccc(N4CCOCC4)nn3)c2)cc(OC)c1 | inconclusive: 15.8 µM [inhibitor, partial curve, poor fit]
COc1ccc(C(=O)N2CCC(Oc3ncccc3C(=O)N3CCCCC3)C2)c(OC)c1 (centres undefined) | inconclusive: 20 µM [inhibitor, single point]

Compound | Potency
CC(C)c1noc([C@@H]2C[C@H]3C(=O)NCCCCCCN(C(=O)CCc4ccccc4)[C@H]3C2)n1 | inconclusive: 17.8 µM [inhibitor, single point]
Cc1ccc(NC(=O)Nc2ccc3c(c2)N(C)C(=O)c2ccccc2S3)c(C)c1 | inconclusive: 17.8 µM [inhibitor, single point]
O=C1NCc2ccccc2CC12CCN(Cc1ccnc3ccccc13)C2 (centres undefined) | inconclusive: 7.94 µM [inhibitor, partial curve]
COc1ccc(C2(C(=O)N3CCCN(C)c4ccccc43)CC2)cc1 | inconclusive: 17.8 µM [inhibitor, single point]
COc1ccccc1NC(=O)c1c(NCc2ccc(OC)c(OC)c2OC)sc2c1CCCC2 | inconclusive: 10 µM [inhibitor, single point]
O=C(NC(=O)c1ccc(F)cc1)Nc1ccc(-c2cc(C(F)(F)F)nn2-c2ccccc2)cc1 | inactive
C[C@H]1[C@@H]2[C@@H](O)C([C@H](C)C(=O)NCCN3CCOCC3)CC[C@@]2(C)CC[C@@H]1NC(=O)c1cnccn1 (some centres undefined) | inactive
Cc1cn2nnc(C(=O)NCc3ccc(OC(C)C)cc3)c2c(=O)[nH]1 | inconclusive: 1.58 µM [inhibitor, partial curve, poor fit]
Cc1ccc(Cn2nc3n(c2=O)CCN(Cc2cc(C)ccc2C)C3=O)cc1 | inconclusive: 8.91 µM [inhibitor, partial curve, poor fit]
CCCN1CCN(C(=O)C2CCCN(c3cnc4nccnc4c3)C2)CC1 (centres undefined) | inactive
CCOc1ccc(-n2c(-c3ccc(Br)cc3)cc3c2CC(C)(C)CC3=O)cc1 | inconclusive: 14.1 µM [inhibitor, single point]
Cc1ccc(NC(=O)Cn2c(-c3ccccc3)nc(C)c(CCO)c2=O)cc1Cl | inconclusive: 1 µM [inhibitor, full curve, poor fit]
Cc1nc(N2CCCC2)ncc1C(=O)Nc1ccc(OC(F)(F)F)cc1 | inactive
COc1ccc(OCc2ccc(-c3nc(C#N)c(NCc4ccc(F)cc4)o3)o2)cc1 | inconclusive: 20 µM [inhibitor, single point]
Cc1nc(N2CCCC3(CN(C)C(=O)O3)C2)cc(-n2cccn2)n1 (centres undefined) | inconclusive: 0.0631 µM [inhibitor, full curve]
COc1cccc(CNC(=O)Nc2cn(CC(C)C)c(=O)c3ccccc23)c1 | inconclusive: 10 µM [inhibitor, single point]
COc1ccccc1C(=O)N1CCC(n2cnnc2C2CC2)CC1 | inactive
CCCC(=O)N1Cc2ccccc2CC2(CCCCN2Cc2cccnc2)C1 (centres undefined) | inconclusive: 3.55 µM [inhibitor, partial curve, poor fit]
Cc1cc(C)cc(NC(=O)Cn2c(N3CCN(c4ccccc4)CC3)nc(C)cc2=O)c1 | inconclusive: 5.62 µM [inhibitor, partial curve, poor fit]
O=C(c1ccc2c(c1)OCO2)N1CCC2(CC1)N=C(c1ccccc1)NO2 | inconclusive: 3.98 µM [inhibitor, single point]
CCOc1ccc(NC(=O)Cn2ccn3nc4c(c3c2=O)CCCCC4)cc1 | inactive
Brc1ccc(CN2CCc3nc(Nc4ccccc4)ncc3C2)s1 | inconclusive: 7.94 µM [inhibitor, partial curve]

Compound | Potency
O=C(c1ccc2c(c1)N(Cc1ccccc1F)C(=O)c1ccccc1S2=O)N1CCC(Cc2ccccc2)CC1 (centres undefined) | inactive
COc1ccc(CCNc2ncnc3c2cnn3-c2ccc(F)cc2)cc1 | inconclusive: 0.891 µM [inhibitor, full curve, poor fit]
O=C(CN1CC2CC(C1)[C@H]1CCCC(=O)N1C2)NCc1cc(F)cc(F)c1 (some centres undefined) | inactive
Cc1ccc(Cl)cc1NC(=O)Cn1nnc2sc3c(c2c1=O)CCC(C(C)(C)C)C3 (centres undefined) | inconclusive: 17.8 µM [inhibitor, partial curve, poor fit]
O=C(NCC1Cn2cccc2C(=O)N1Cc1ccccc1)c1cn[nH]c1-c1ccccc1 (centres undefined) | inconclusive: 17.8 µM [inhibitor, single point]
COc1ccc(OC)c(CN2CCC3(COC(=O)N3Cc3ccccc3)C2)c1 (centres undefined) | inconclusive: 22.4 µM [inhibitor, single point]
COc1cccc(-c2nnnn2[C@H]2CO[C@H]3[C@@H]2OC[C@@H]3NC(=O)Nc2ccc(Oc3ccccc3)cc2)c1 | inactive
CC(C)c1cc(CN(C)Cc2cn[nH]c2-c2ccc(F)cc2)no1 | inconclusive: 7.94 µM [inhibitor, partial curve, poor fit]
COc1cc(C(=O)Nc2cc(C)c(O)c(-c3nc4cc(Cl)ccc4o3)c2)cc(OC)c1OC | inactive
CN1CC2(CCN(C(=O)C3CCCC3)CC2)CC1C(=O)N1CCOCC1 (centres undefined) | inactive
COc1ccc(CNC(=O)C[C@@H]2O[C@H](CNC(=O)NC(C)C)[C@@H](O)[C@H]2O)cc1 | inactive
CC(C)S(=O)(=O)N1CC(Oc2ccc(-c3noc(C4CCOCC4)n3)cc2)C1 | inconclusive: 2 µM [inhibitor, partial curve, poor fit]
O=C(c1cnc2c(c1)N([S+](=O)([O-])c1cccnc1)CCC2)N1CCCC[C@@H]1c1ccccc1 | inactive
COc1ccc2c(c1)c(=O)c(C(=O)c1ccc(F)cc1)cn2CC(=O)Nc1ccc2c(c1)OCCO2 | inconclusive: 17.8 µM [inhibitor, single point]
C=CCN(C)C(=O)C[C@@H]1c2nc(NC(=O)Cc3ccc(OC)cc3)sc2C[C@@H]2[C@](C)(CO)[C@H](O)CC[C@]21C | inconclusive: 12.6 µM [inhibitor, partial curve, poor fit]
COC1C(=O)N(C2CCN(C(=O)c3cnccc3C)CC2)C12CCOCC2 (centres undefined) | inactive
CC(Cc1cccnc1)Nc1cc(-c2ccccc2F)nc2ccnn12 (centres undefined) | inconclusive: 12.6 µM [inhibitor, single point]
O=C(c1ccc(Cl)cc1)N1CC2(CCN(CC3CCCCC3)CC2)Cc2ccccc21 | active: 5.62 µM
Cc1ccc(NC(=O)Cn2c(=O)ccc3cc(S(=O)(=O)N4CCCC4)ccc32)cc1C | inactive
CCCCCNC(=O)Cc1csc2nc(C)c(-c3cc(C)n(-c4cccc(C)c4C)n3)c(=O)n12 | inconclusive: 2.24 µM [inhibitor, single point]
